# Measurements from the supplement of paper PMC8728848.
# The list shows a part of the results.
# What was measured:
# Assay in all cases: glycan array binding signal (z-score within array); higher = stronger binding
# Conditions in all cases: glycan notation: IUPAC condensed, linker removed
# [1] = target: Fuc(a1-2)Gal(b1-4)GlcNAc(b1-3)Gal(b1-4)GlcNAc(b1-2)Man(a1-3)[Fuc(a1-2)Gal(b1-4)GlcNAc(b1-3)Gal(b1-4)GlcNAc(b1-2)Man(a1-6)]Man(b1-4)GlcNAc(b1-4)GlcNAc
# Summary of the method: (§1)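 Arrays were curated from the Consortium for Functional Glycomics database, 3228 in total, and kept only where the protein sequence was available. Binding is expressed as a within-array Z-score. This score was averaged across arrays of the same protein sequence at different concentrations or buffers and across linkers, and negative values can be read as non-binding.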
# [2] = target: Fuc(a1-2)Gal(b1-4)GlcNAc(b1-3)Gal(b1-4)GlcNAc(b1-3)Gal(b1-4)GlcNAc
# Summary of the method: as §1
# [3] = target: Fuc(a1-2)Gal(b1-4)GlcNAc(b1-3)GalNAc
# Summary of the method: as §1
# [4] = target: Fuc(a1-2)Gal(b1-4)GlcNAc(b1-3)[Fuc(a1-2)Gal(b1-4)GlcNAc(b1-6)]GalNAc
# Summary of the method: as §1
# [5] = target: Fuc(a1-2)Gal(b1-4)GlcNAc(b1-3)[Fuc(a1-3)[Gal(b1-4)]GlcNAc(b1-6)]Gal(b1-4)Glc
# Summary of the method: as §1
# [6] = target: Fuc(a1-2)Gal(b1-4)GlcNAc(b1-6)GalNAc
# Summary of the method: as §1
# [7] = target: Fuc(a1-2)Gal(b1-4)GlcNAc6S
# Summary of the method: as §1
# [8] = target: Fuc(a1-2)Gal(b1-4)[Fuc(a1-3)]GlcNAc
# Summary of the method: as §1
# [9] = target: Fuc(a1-2)Gal(b1-4)[Fuc(a1-3)]GlcNAc(b1-2)Man(a1-3)[Fuc(a1-2)Gal(b1-4)[Fuc(a1-3)]GlcNAc(b1-2)Man(a1-6)]Man(b1-4)GlcNAc(b1-4)[Fuc(a1-6)]GlcNAc
# Summary of the method: as §1
# [10] = target: Fuc(a1-2)Gal(b1-4)[Fuc(a1-3)]GlcNAc(b1-2)[Fuc(a1-2)Gal(b1-4)[Fuc(a1-3)]GlcNAc(b1-4)]Man(a1-3)[Fuc(a1-2)Gal(b1-4)[Fuc(a1-3)]GlcNAc(b1-2)Man(a1-6)]Man(b1-4)GlcNAc(b1-4)GlcNAc
# Summary of the method: as §1
# [11] = target: Fuc(a1-2)Gal(b1-4)[Fuc(a1-3)]GlcNAc(b1-3)Gal(b1-4)[Fuc(a1-3)]GlcNAc
# Summary of the method: as §1
# [12] = target: Fuc(a1-2)Gal(b1-4)[Fuc(a1-3)]GlcNAc(b1-3)Gal(b1-4)[Fuc(a1-3)]GlcNAc(b1-3)Gal(b1-4)[Fuc(a1-3)]GlcNAc
# Summary of the method: as §1
# [13] = target: Fuc(a1-2)Gal(b1-4)[Fuc(a1-3)]GlcNAc(b1-3)GalNAc
# Summary of the method: as §1
# [14] = target: Fuc(a1-2)Gal(b1-4)[Fuc(a1-3)]GlcNAc(b1-3)[Neu5Ac(a2-6)Gal(b1-4)GlcNAc(b1-6)]Gal(b1-4)Glc
# Summary of the method: as §1
# [15] = target: Fuc(a1-2)Gal3S(b1-4)GlcNAc
# Summary of the method: as §1
# [16] = target: Fuc(a1-2)Gal6S(b1-3)GlcNAc
# Summary of the method: as §1
# [17] = target: Fuc(a1-2)Gal6S(b1-3)GlcNAc6S
# Summary of the method: as §1
# Fuc(a1-2)Gal6S(b1-4)Glc = target: Fuc(a1-2)Gal6S(b1-4)Glc
# Summary of the method: as §1
# [18] = target: Fuc(a1-2)Gal6S(b1-4)Glc6S
# Summary of the method: as §1
# Fuc(a1-2)[Gal(a1-3)]Gal = target: Fuc(a1-2)[Gal(a1-3)]Gal
# Summary of the method: as §1
# [19] = target: Fuc(a1-2)[Gal(a1-3)]Gal(b1-3)GalNAc
# Summary of the method: as §1
# [20] = target: Fuc(a1-2)[Gal(a1-3)]Gal(b1-3)GalNAc(b1-3)Gal(a1-4)Gal(b1-4)Glc
# Summary of the method: as §1
# [21] = target: Fuc(a1-2)[Gal(a1-3)]Gal(b1-3)GlcNAc
# Summary of the method: as §1
# [22] = target: Fuc(a1-2)[Gal(a1-3)]Gal(b1-3)GlcNAc(b1-2)Man(a1-3)[Fuc(a1-2)[Gal(a1-3)]Gal(b1-3)GlcNAc(b1-2)Man(a1-6)]Man(b1-4)GlcNAc(b1-4)GlcNAc
# Summary of the method: as §1
# [23] = target: Fuc(a1-2)[Gal(a1-3)]Gal(b1-3)GlcNAc(b1-2)Man(a1-3)[Fuc(a1-2)[Gal(a1-3)]Gal(b1-3)GlcNAc(b1-2)Man(a1-6)]Man(b1-4)GlcNAc(b1-4)[Fuc(a1-6)]GlcNAc
# Summary of the method: as §1
# [24] = target: Fuc(a1-2)[Gal(a1-3)]Gal(b1-3)GlcNAc(b1-3)GalNAc
# Summary of the method: as §1
# [25] = target: Fuc(a1-2)[Gal(a1-3)]Gal(b1-3)GlcNAc(b1-6)GalNAc
# Summary of the method: as §1
# [26] = target: Fuc(a1-2)[Gal(a1-3)]Gal(b1-4)Glc
# Summary of the method: as §1
# [27] = target: Fuc(a1-2)[Gal(a1-3)]Gal(b1-4)GlcNAc
# Summary of the method: as §1
# [28] = target: Fuc(a1-2)[Gal(a1-3)]Gal(b1-4)GlcNAc(b1-2)Man
# Summary of the method: as §1
# [29] = target: Fuc(a1-2)[Gal(a1-3)]Gal(b1-4)GlcNAc(b1-2)Man(a1-3)[Fuc(a1-2)[Gal(a1-3)]Gal(b1-4)GlcNAc(b1-2)Man(a1-6)]Man(b1-4)GlcNAc(b1-4)GlcNAc
# Summary of the method: as §1
# [30] = target: Fuc(a1-2)[Gal(a1-3)]Gal(b1-4)GlcNAc(b1-2)Man(a1-3)[Fuc(a1-2)[Gal(a1-3)]Gal(b1-4)GlcNAc(b1-2)Man(a1-6)]Man(b1-4)GlcNAc(b1-4)[Fuc(a1-6)]GlcNAc
# Summary of the method: as §1
# [31] = target: Fuc(a1-2)[Gal(a1-3)]Gal(b1-4)GlcNAc(b1-3)GalNAc
# Summary of the method: as §1
# [32] = target: Fuc(a1-2)[Gal(a1-3)]Gal(b1-4)GlcNAc(b1-3)[Fuc(a1-2)[Gal(a1-3)]Gal(b1-4)GlcNAc(b1-6)]GalNAc
# Summary of the method: as §1
# [33] = target: Fuc(a1-2)[Gal(a1-3)]Gal(b1-4)GlcNAc(b1-6)GalNAc
# Summary of the method: as §1
# [34] = target: Fuc(a1-2)[Gal(a1-3)]Gal(b1-4)[Fuc(a1-3)]Glc
# Summary of the method: as §1
# [35] = target: Fuc(a1-2)[Gal(a1-3)]Gal(b1-4)[Fuc(a1-3)]GlcNAc
# Summary of the method: as §1
binder,measurement,setting,value
"Sebin1 (Coprinopsis cinerea), A8PEE3 (protein) MTSPFYAHIHNVQDDNTWRFTLIFANRATADEWWRAISEAPANTSIAKSITRVTPQYYTHDVNIWNIWNFFADGNIKSISERFRGRLFIVLENDRGGRGITVIPPVPIVDHVSGNWFYIRSKTAPHLFWYYDERRSSIYASKEKRTRFKISIRNPSSQTPKNAIMINTDDVTIHIKENLYVGVDNNLGHIIPTRAYRTFKFGELESGAIAGFDVVENIEERCSSTFDGASLSISGPDSSSPGEPWELV",glycan array binding signal (z-score),[1],-0.103
same,glycan array binding signal (z-score),[2],-0.188
same,glycan array binding signal (z-score),[3],-0.216
same,glycan array binding signal (z-score),[4],-0.085
same,glycan array binding signal (z-score),[5],-0.909
same,glycan array binding signal (z-score),[6],4.71
same,glycan array binding signal (z-score),[7],-0.525
same,glycan array binding signal (z-score),[8],-0.485
same,glycan array binding signal (z-score),[9],-0.24
same,glycan array binding signal (z-score),[10],-0.182
same,glycan array binding signal (z-score),[11],-0.115
same,glycan array binding signal (z-score),[12],0.072
same,glycan array binding signal (z-score),[13],0.966
same,glycan array binding signal (z-score),[14],0.315
same,glycan array binding signal (z-score),[15],-0.455
same,glycan array binding signal (z-score),[16],-0.238
same,glycan array binding signal (z-score),[17],0.963
same,glycan array binding signal (z-score),Fuc(a1-2)Gal6S(b1-4)Glc,-0.556
same,glycan array binding signal (z-score),[18],0.002
same,glycan array binding signal (z-score),Fuc(a1-2)[Gal(a1-3)]Gal,-0.114
same,glycan array binding signal (z-score),[19],-0.147
same,glycan array binding signal (z-score),[20],-0.064
same,glycan array binding signal (z-score),[21],-0.29
same,glycan array binding signal (z-score),[22],-0.262
same,glycan array binding signal (z-score),[23],2.8
same,glycan array binding signal (z-score),[24],0.3
same,glycan array binding signal (z-score),[25],-0.225
same,glycan array binding signal (z-score),[26],-0.318
same,glycan array binding signal (z-score),[27],-0.369
same,glycan array binding signal (z-score),[28],-0.672
same,glycan array binding signal (z-score),[29],-0.234
same,glycan array binding signal (z-score),[30],0.423
same,glycan array binding signal (z-score),[31],-0.229
same,glycan array binding signal (z-score),[32],3.52
same,glycan array binding signal (z-score),[33],-0.194
same,glycan array binding signal (z-score),[34],-0.683
same,glycan array binding signal (z-score),[35],-0.054
